Experimental data published in PubChem BioAssay AID493208 (National Center for Advancing Translational Sciences (NCATS), 2011).
The campaign covered roughly 44,000 compounds. About 340 (0.77%) were called active. Another 5% or so got no clear call; they are omitted. Calls follow the shape of the dose curve; as a rule, active = well fitted inhibition curve with a large enough effect; inconclusive = small, poorly fitted or top-dose-only effect; inactive = flat fitted curve, though single readings scatter. This is one part of the list.

test: Acumen qHTS Assay for Inhibitors of the mTORC1 Signaling Pathway in MEF (Tsc2-/-, p53-/-) Cells: Sytravon; details: phospho-rpS6 immunofluorescence/PI, 24 h; series mostly up to 38.3 µM; activity change, negative = inhibition: at the top concentration;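 also: plate controls were DMSO for no effect and rapamycin for full effect; nearly all actives have a fitted effect of over 50% in size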
Procedure, shortened: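 Plate MEFs (Tsc2-/-, p53-/-, empty vector) in DMEM/10% FBS; after 24 h add compound, incubate 24 h at 37 degree Celsius; fix in PFA/TX-100, block, stain phospho-rpS6 and 10 uM PI; scan at 488 nm; report % positive cells.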

Activity change, negative = inhibition, inactive:
CCOC(=O)c1nnc2c(-c3ccc(Cl)cc3)c(C)nn2c1N -0.428%
CCc1ccccc1NC(=O)Cn1nnc(C(=O)NCc2ccco2)c1N -1.56%
CC(=O)Nc1ccc(NC(=O)c2csnn2)cc1 -6.09%
COCCN1C(=O)N(c2cccc(OC)c2)C(=O)C1CC(=O)Nc1ccccc1 (stereo not drawn) -17.3%
O=C(NCc1ccc(Cl)cc1)C(=O)NCC(c1ccc2c(c1)OCO2)N1CCOCC1 (stereo not drawn) -3.49%
COc1cc2ccccc2cc1C(=O)N1CCN(c2nc3c(F)cccc3s2)CC1 3.28%
CCCCc1nn2c(=O)cc(COC(=O)c3cccc(NC(=O)c4cccs4)c3)nc2s1 0%
O=C(c1ccccc1)N1CCC(c2nc3ccccc3o2)CC1 -20.7%
CC(=O)c1ccc(NC(=O)c2cc3c([nH]c2=O)CC(c2ccccc2)CC3=O)cc1 (stereo not drawn) -1.57%
CCOc1ccc2c(c1)c(=O)c(C(=O)c1ccccc1)cn2Cc1ccccc1F -1.41%
COc1ccc(CCNC(=O)c2cnn(-c3cccc(C)c3)c2C2CCNCC2)cc1OC -6.47%
CN1C(=O)Cc2cc(S(=O)(=O)CCC(=O)Nc3ccc(Cl)cc3)ccc21 0%
CCN(CC)C(=O)c1sc2c(c1C)c(=O)n(-c1ccc(C)c(C)c1)c(=O)n2CC(=O)Nc1ccc(OC)cc1OC 2.58%
Cc1cc(F)ccc1NC(=O)CCS(=O)(=O)c1cc2c3c(c1)CCN3C(=O)CC2 0.634%
COc1ccc(OC)c(CNS(=O)(=O)c2cc(-c3onc(C)c3C)ccc2C)c1 -6.27%
Cc1cc(C)n2c(Nc3ccc4c(c3)OCCO4)c(-c3ccccc3)nc2n1 -9.03%
COc1ccc(N2CCN(CCCNC(=O)c3nnc(Cc4ccccc4Cl)o3)CC2)cc1 -23.1%
CC(=O)c1ccc(NC(=O)CSc2nnc(-c3ccncc3)n2-c2ccccc2)cc1 -7.39%
COc1ccc(/C=C/C(=O)Nc2cc(-c3nc4ccccc4o3)ccc2OC)cc1 5.56%
Cc1ccc(S(=O)(=O)c2[nH]c(-c3ccccc3)nc2SC(C)C(=O)O)cc1 (stereo not drawn) 1.16%
FC(F)(F)c1cccc(N2CCN(c3nc4ccccc4n4cnnc34)CC2)c1 -0.598%
COc1ccc(-n2c(SC)nc3sc4c(c3c2=O)CCN(C(C)=O)C4)cc1 0%
Cc1ccc(NC(=O)CSc2nnc(-c3cc4occc4n3C)n2-c2ccccc2C)c(C)c1 -12.1%
COc1ccc(CNC(=O)C2CCN(C(=O)c3cnn(-c4ccccc4)c3-n3cccc3)CC2)cc1 -0.766%
Cc1ccn2c(=O)cc(COc3ccc(NC(=O)C(C)(C)C)cc3)nc2c1 1.11%
Cc1ccc2c(c1)N(C(=O)Nc1ccc(Br)cc1F)CCO2 -5.23%
COC(=O)c1ccccc1NC(=O)CSc1n[nH]c(C)n1 -2.71%
O=c1c2sc3ccccc3c2n(Cc2cccc(C(F)(F)F)c2)c(=O)n1-c1ccccc1 3.1%
CC(C)Oc1ccc(CNC(=O)CN2C(=O)c3cccnc3Oc3ccc(Cl)cc32)cc1 -5.75%
CCS(=O)(=O)N1CCc2cc(C(=O)NC(C)c3ccccc3)ccc21 (stereo not drawn) -2.93%
COc1ccc(S(=O)(=O)c2cc3cc(C(C)(C)C)cc(O)c3oc2=O)cc1 -10.6%
Cn1c(COc2ccccc2C(C)(C)C)nc2ccccc21 0%
CCCCCn1c(=N)c(S(=O)(=O)c2ccc(C)cc2)cc2c(=O)n3cc(C)ccc3nc21 2.3%
CC(C)(CC(=O)NCc1ccc(Cl)cc1Cl)CC1=NS(=O)(=O)c2ccccc2N1 -0.125%
Cn1c2c(c(=O)n(C)c1=O)C(c1ccccc1C(F)(F)F)CC(=O)N2 (stereo not drawn) -4.17%
CCOC(=O)c1ccc(CN(Cc2ccc(F)cc2)S(=O)(=O)c2ccc(F)c(C(=O)Nc3ccccc3C(F)(F)F)c2)cc1 1.1%
COC(=O)c1ccc(NS(=O)(=O)c2ccc3c(c2)n(C)c(=O)c(=O)n3C)cc1 -0.443%
CCNC(=O)CC1C(=O)N(c2ccc(F)cc2)C(=O)N1Cc1ccc(OC)c(OC)c1 (stereo not drawn) -9.58%
Cc1ccc(C(=O)N2CCN(c3cccc(Cl)c3)CC2)cc1-n1c(C)nc2cccnc21 -1.74%
CCc1ccccc1N(CC)C(=O)C(=O)Nc1ccc2nc3n(c(=O)c2c1)CCCCC3 1.83%
O=C(c1ccc2c(c1)N(Cc1cccc(Cl)c1)C(=O)c1ccccc1S2(=O)=O)N1CCc2ccccc21 -0.534%
COc1cc(Cl)c(C)cc1NC(=O)C1CCCN(c2ncnc3onc(-c4ccc(F)cc4)c23)C1 (stereo not drawn) -4.33%
Cc1cc2c(cc1S(=O)(=O)N(C)CC(=O)Nc1cccc(C#N)c1)OCC(=O)N2 -2.25%
CCOC(=O)c1cccc(NC(=O)CCn2nc(C)c3c(C)n(-c4ccccc4)nc3c2=O)c1 -9.53%
COCCCNC(=O)C1CCCN(S(=O)(=O)c2ccc3c(c2)oc(=O)n3C)C1 (stereo not drawn) 9.07%
Cc1ccc(C)c(NC(=O)N2CCC(N3CCN(Cc4ccc(F)cc4)C(=O)C3=O)CC2)c1 9.34%
COc1ccccc1CNC(=O)c1ccc(CN2CC(=O)N3CCCCC3C2=O)cc1 (stereo not drawn) -3.66%
CCN(CC)c1ccc(NC(=O)CN2CCN(CC(=O)Nc3ccccc3OC)CC2)cc1 -1.85%
